{
  "sequences": {"note": "Amino acid sequences for entries named in this document (tags omitted). A change or cut given only in a name is not applied to a line headed by its entry. Chains listed by the source or under a name are the forms on record and can include a tag or linker.", "UniProt Q9UQ84": "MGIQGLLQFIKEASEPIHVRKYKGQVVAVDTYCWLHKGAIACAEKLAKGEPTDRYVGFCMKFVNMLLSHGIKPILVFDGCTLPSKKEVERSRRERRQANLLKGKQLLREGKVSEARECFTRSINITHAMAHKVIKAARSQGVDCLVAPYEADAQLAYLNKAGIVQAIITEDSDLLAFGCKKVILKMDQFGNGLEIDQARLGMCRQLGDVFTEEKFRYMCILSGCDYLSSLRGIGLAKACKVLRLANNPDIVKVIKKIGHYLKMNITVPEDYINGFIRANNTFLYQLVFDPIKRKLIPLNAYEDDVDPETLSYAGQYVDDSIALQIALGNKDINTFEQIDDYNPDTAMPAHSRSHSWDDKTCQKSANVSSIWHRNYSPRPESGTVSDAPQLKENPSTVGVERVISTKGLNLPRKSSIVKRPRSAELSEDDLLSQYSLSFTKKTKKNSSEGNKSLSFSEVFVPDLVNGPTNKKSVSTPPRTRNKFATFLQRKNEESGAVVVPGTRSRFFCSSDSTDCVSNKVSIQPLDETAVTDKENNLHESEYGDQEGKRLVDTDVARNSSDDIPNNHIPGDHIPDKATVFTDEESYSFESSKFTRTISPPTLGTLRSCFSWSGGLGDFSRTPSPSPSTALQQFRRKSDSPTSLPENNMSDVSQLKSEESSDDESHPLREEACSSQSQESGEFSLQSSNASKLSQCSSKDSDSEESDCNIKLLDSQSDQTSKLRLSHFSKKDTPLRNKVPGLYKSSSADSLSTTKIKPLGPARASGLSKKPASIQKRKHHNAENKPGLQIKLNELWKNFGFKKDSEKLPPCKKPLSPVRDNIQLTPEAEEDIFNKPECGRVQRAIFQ", "Exo1(PIPFen1-WT) (Q9UQ84, form named)": "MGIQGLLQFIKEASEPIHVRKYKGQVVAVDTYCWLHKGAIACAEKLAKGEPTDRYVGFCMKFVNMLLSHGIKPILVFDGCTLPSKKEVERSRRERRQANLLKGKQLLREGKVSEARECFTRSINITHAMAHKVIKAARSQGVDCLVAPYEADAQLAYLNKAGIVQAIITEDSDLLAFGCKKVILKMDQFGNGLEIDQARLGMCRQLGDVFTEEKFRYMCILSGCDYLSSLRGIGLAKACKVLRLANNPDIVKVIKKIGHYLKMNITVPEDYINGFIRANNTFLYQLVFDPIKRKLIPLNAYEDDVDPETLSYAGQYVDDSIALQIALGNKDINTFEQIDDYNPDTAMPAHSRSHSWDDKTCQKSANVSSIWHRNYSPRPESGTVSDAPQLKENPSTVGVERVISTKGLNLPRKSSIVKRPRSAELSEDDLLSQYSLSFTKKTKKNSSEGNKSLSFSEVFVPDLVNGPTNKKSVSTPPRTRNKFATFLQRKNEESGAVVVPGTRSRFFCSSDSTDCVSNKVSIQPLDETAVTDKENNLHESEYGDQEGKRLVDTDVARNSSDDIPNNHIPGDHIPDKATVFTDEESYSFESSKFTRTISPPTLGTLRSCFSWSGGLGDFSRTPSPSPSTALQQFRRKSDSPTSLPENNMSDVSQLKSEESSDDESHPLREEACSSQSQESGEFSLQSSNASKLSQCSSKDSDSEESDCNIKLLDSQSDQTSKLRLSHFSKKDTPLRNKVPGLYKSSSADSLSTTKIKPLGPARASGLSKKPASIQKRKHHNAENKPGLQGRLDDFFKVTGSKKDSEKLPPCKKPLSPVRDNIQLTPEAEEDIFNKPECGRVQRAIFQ", "FLAG-Exo1(ΔPIP) (Q9UQ84, form named)": "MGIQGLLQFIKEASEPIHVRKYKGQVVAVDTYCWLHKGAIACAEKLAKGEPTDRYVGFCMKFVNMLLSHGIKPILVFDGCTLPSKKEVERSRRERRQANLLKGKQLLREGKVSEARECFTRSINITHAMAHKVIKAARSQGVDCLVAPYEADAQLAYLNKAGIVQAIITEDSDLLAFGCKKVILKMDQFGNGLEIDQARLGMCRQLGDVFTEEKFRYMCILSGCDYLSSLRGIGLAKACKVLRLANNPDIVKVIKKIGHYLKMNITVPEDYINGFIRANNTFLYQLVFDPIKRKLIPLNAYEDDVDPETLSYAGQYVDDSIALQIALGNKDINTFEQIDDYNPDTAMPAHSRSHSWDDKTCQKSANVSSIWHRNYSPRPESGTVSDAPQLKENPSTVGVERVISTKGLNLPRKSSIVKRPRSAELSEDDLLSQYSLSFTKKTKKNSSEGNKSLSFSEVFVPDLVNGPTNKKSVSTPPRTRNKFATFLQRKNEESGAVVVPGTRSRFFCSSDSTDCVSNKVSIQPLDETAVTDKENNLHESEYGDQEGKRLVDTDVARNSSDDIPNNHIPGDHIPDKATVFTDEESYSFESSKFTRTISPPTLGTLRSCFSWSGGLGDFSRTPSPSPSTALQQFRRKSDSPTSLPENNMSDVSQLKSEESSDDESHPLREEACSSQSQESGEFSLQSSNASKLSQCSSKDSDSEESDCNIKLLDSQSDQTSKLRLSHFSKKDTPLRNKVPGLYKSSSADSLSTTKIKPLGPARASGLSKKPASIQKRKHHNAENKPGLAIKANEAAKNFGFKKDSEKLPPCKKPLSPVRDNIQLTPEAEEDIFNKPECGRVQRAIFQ", "UniProt P12004": "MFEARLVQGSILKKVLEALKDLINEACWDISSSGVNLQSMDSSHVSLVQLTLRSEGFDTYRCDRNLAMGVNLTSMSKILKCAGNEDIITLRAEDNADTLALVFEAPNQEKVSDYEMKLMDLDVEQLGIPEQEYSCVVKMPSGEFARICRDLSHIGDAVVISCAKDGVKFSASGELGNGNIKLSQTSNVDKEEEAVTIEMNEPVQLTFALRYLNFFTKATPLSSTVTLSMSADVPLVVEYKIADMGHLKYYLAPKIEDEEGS", "UniProt P18248": "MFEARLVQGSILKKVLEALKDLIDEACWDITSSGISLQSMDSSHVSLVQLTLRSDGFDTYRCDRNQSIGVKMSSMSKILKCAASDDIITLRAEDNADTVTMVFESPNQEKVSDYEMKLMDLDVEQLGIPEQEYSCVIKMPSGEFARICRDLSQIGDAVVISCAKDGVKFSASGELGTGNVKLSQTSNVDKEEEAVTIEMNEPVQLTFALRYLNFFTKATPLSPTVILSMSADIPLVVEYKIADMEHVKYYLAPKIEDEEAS"},
  "source": "paper PMC3814391",
  "molecules": {"B1": {"name": "mCherry-PIPp21-WT-NLS (domain or fragment)", "chain": "DLSLSCTLVPRSGEQAEGSPGGPGDSQGRKRRQTSMTDFYHSKRRAIAS"}},
  "key": {"FLAG-tagged Exo1 (human) [1]": {"target": "FLAG-tagged Exo1 (human) (UniProt Q9UQ84)", "experiment": "co-IP; human cells overexpressing mCherry-PIPp21-WT-NLS as competitor (Supplementary Figure S4)"}, "Exo1(PIPFen1-WT)": {"target": "Exo1(PIPFen1-WT) (UniProt Q9UQ84)", "experiment": "co-IP; HEK293T lysate (20 mM Tris-HCl pH 8.0, 1 mM EDTA, 150 mM NaCl, 0.5% NP-40, 1 mM PMSF); FLAG-tagged Exo1 or mutant precipitated with M2-conjugated Sepharose, 4°C for 2 h; immunoblot"}, "FLAG-Exo1(ΔPIP) (human)": {"target": "FLAG-Exo1(ΔPIP) (human) (UniProt Q9UQ84)", "experiment": "co-IP; HEK293T lysate (20 mM Tris-HCl pH 8.0, 1 mM EDTA, 150 mM NaCl, 0.5% NP-40, 1 mM PMSF); FLAG-tagged Exo1 or mutant precipitated with M2-conjugated Sepharose, 4°C for 2 h; immunoblot"}, "FLAG-tagged Exo1 (human) [2]": {"target": "FLAG-tagged Exo1 (human) (UniProt Q9UQ84)", "experiment": "co-IP; HEK293T lysate (20 mM Tris-HCl pH 8.0, 1 mM EDTA, 150 mM NaCl, 0.5% NP-40, 1 mM PMSF); FLAG-tagged Exo1 or mutant precipitated with M2-conjugated Sepharose, 4°C for 2 h; immunoblot"}, "[3]": {"target": "T1, Xenopus Exo1 (Xenopus (endogenous in egg nuclear extract)) (UniProt Q9W6K2)", "T1 sequence": "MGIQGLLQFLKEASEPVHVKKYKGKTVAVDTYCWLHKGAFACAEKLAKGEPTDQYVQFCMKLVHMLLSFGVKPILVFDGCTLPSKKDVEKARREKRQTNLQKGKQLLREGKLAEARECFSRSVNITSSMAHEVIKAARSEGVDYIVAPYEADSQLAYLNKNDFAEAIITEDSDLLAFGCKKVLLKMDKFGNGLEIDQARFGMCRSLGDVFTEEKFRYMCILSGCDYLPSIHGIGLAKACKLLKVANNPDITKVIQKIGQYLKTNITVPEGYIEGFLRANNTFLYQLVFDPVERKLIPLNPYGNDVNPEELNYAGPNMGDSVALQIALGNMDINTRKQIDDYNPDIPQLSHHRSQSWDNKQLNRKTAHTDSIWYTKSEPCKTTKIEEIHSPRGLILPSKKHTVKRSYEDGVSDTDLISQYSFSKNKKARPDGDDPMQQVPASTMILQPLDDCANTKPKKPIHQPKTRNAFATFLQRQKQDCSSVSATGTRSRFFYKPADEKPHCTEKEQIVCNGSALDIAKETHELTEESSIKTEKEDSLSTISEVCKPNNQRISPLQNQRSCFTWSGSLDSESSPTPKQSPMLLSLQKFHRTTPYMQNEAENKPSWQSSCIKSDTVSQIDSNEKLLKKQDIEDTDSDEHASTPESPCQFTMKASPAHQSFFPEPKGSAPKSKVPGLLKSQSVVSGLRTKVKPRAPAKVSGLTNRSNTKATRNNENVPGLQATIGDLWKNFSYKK", "experiment": "co-IP; Xenopus nuclear extract with PIPp21-WT or PIPp21-MUT peptide added; xExo1-xPCNA interaction (Figure 5A)"}, "[4]": {"target": "T1, Xenopus Exo1 (Xenopus (endogenous in egg nuclear extract))", "experiment": "co-IP; Xenopus nuclear protein extract; Protein A-Sepharose beads pre-bound by anti-xExo1 or anti-xPCNA antibodies, 4°C for 2 h; immunoblot"}, "[5]": {"target": "PCNA (human cells) (human (endogenous in HEK293T)) (UniProt P12004)", "experiment": "co-IP; human cells overexpressing mCherry-PIPp21-WT-NLS as competitor (Supplementary Figure S4)"}},
  "note": "Results are given in words; binding and its absence hold for the method and conditions named. Binding seen in cells or lysates may run through a third protein. Some entries that bind do so weakly or less than the wild type.",
  "data": [
    {"molecule": "PCNA (human cells) (from UniProt P12004 1-261)", "values": [
      {"measurement": "binding", "setting": "FLAG-tagged Exo1 (human) [1]", "result": "binds"},
      {"measurement": "binding", "setting": "Exo1(PIPFen1-WT)", "result": "binds"},
      {"measurement": "binding", "setting": "FLAG-Exo1(ΔPIP) (human)", "result": "no binding"},
      {"measurement": "binding", "setting": "FLAG-tagged Exo1 (human) [2]", "result": "binds"}
    ]},
    {"molecule": "Xenopus PCNA (from UniProt P18248 1-261)", "values": [
      {"measurement": "binding", "setting": "[3]", "result": "binds"},
      {"measurement": "binding", "setting": "[4]", "result": "binds"}
    ]},
    {"molecule": "B1", "values": [
      {"measurement": "binding", "setting": "[5]", "result": "binds"}
    ]}
  ]
}
